Measurements from patent US20230250147A1 (Sanofi, published 2023).

T1: Mouse GLP-1R (mouse, UniProt O35659 22-463)
T1 sequence (looked up): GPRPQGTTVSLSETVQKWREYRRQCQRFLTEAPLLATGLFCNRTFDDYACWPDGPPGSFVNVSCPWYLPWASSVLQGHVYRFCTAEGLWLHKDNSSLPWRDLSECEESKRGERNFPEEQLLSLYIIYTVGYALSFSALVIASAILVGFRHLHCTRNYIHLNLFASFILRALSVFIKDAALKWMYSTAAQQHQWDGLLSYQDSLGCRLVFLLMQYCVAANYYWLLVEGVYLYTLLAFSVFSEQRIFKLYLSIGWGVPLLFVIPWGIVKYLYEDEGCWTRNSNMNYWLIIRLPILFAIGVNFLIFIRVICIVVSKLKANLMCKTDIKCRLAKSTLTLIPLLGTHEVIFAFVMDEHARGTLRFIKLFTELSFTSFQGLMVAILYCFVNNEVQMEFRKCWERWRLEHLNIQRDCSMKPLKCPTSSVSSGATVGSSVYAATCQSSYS


Tests used:
Test in all cases: cell-based or functional assay
[1] = target: T2, human FGFR1c together with human beta-Klotho (KLB) (human, UniProt P11362; Q86Z14)
[2] = target: human glucagon-like peptide-1 (GLP-1) receptor (human, UniProt P43220)
[3] = target: T1, Mouse GLP-1R
[4] = target: Monkey GLP-1R (monkey)
[5] = target: T2, human FGFR1c together with human …; remark: listed apart in the source

| pFGFR ICW EC50 [1] | HTRF cAMP EC50 [2] | HTRF cAMP EC50 [3] | HTRF cAMP EC50 [4] | pERK ICW EC50 [5] | Binder |
| --- | --- | --- | --- | --- | --- |
| 13.8 nmol/L | 8.5 pM | 1.16 pM | 12.3 pM | 4.28 nmol/L | GLP-1RA/FGF21 Fc fusion protein SEQ ID NO: 39 (Fc fusion) HGEGTFTSDLSIQLEEEAVQEFIEWLLATGPSSGAPPPSGGGGGGGSGGGGSGGGGSA[… human IgG1 Fc with changes …]GGGSGSAHPIPDSSPLLQFGGQVRQRYLYTDDACQTEAHLEIREDGTVGGAADQSPESLLQLKALKPGVIQILGVKTSRFLCQRPDGALYGSLHFDPEACSFRELLLEDGYNVYQSEAHGLPLHLPGCKSPHRDPAPRGPARFLPLPGLPPAPPEPPGILAPQPPDVGSSDPLSMVGSQGRSPSYAS |
| 54.6 nmol/L | 78.7 pM | 3.32 pM | 70.7 pM | 8.6 nmol/L | GLP-1RA/FGF21 Fc fusion protein SEQ ID NO: 23 (Fc fusion) HGEGTFTSDLSIQLEEEAVQEFIEWLLATGPSSGAPPPSGGGGGGGSGGGGSGGGGSA[… human IgG4 Fc with changes …]GGGSGSAHPIPDSSPLLQFGGQVRQRYLYTDDACQTEAHLEIREDGTVGGAADQSPESLLQLKALKPGVIQILGVKTSRFLCQRPDGALYGSLHFDPEACSFRELLLEDGYNVYQSEAHGLPLHLPGCKSPHRDPAPRGPARFLPLPGLPPAPPEPPGILAPQPPDVGSSDPLSMVGSQGRSPSYAS |
| 42.9 nmol/L | 9.49 pM | 1.97 pM | 9.86 pM | 10.4 nmol/L | GLP-1RA/FGF21 Fc fusion protein SEQ ID NO: 20 (Fc fusion) HGEGTFTSDLSKQLEEERVQEFIEWLKAGGPSSGAPPPSGGGGGGGSGGGGSGGGGSA[… human IgG4 Fc with changes …]GGGSGSAHPIPDSSPLLQFGGQVRQRYLYTDDACQTEAHLEIREDGTVGGAADQSPESLLQLKALKPGVIQILGVKTSRFLCQRPDGALYGSLHFDPEACSFRELLLEDGYNVYQSEAHGLPLHLPGCKSPHRDPAPRGPARFLPLPGLPPAPPEPPGILAPQPPDVGSSDPLSMVYPSQGRSPSYAS |
| 25.3 nmol/L | 48.8 pM | 2.66 pM | 43.5 pM | 8.39 nmol/L | GLP-1RA/FGF21 Fc fusion protein SEQ ID NO: 24 (Fc fusion) HGEGTFTSDLSIQLEEEAVQEFIEWLLATGPSSGAPPPSGGGGGGGSGGGGSGGGGSA[… human IgG4 Fc with changes …]GGGSGSAHPIPDSSPLLQFGGQVRQRYLYTDDACQTEAHLEIREDGTVGGAADQSPESLLQLKALKPGVIQILGVKTSRFLCQRPDGALYGSLHFDPEACSFRELLLEDGYNVYQSEAHGLPLHLPGCKSPHRDPAPRGPARFLPLPGLPPAPPEPPGILAPQPPDVGSSDPLSMVYPSQGRSPSYAS |
